Measured values published in the RNAGym collection of RNA variant scans (doi:10.1073/pnas.2313332121).
Variants at the background level are over-represented here.

B1: TPR 5TU (parent)
chain: GGAUCUUCUCGAUCUAACAAAAAAGACAAAUCUGCCACAAAGCUUGAGAGCAUCUUCGGAUGCAGAGGCGGCAGCCUUCGGUGGCGCGAUAGCGCCAACGUUCUCAACUAUGACACGCAAAACGCGUGCUCCGUUGAAUGGAGUUUAUCAUG

Variants of: B1
Assay: polymerase ribozyme fitness, log enrichment relative to wild type (log ratio); higher = more active; in vitro selection for triplet polymerase activity
In short: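 For each subunit of a heterodimeric triplet polymerase ribozyme, a mutant library was built by PCR and transcribed, then taken through a single in vitro selection round in triplicate. Selection involved annealing to a biotinylated primer, the partner subunit and triplets, incubation frozen at −7 °C, gel excision of extended constructs, capture on streptavidin beads and RT-PCR. Genotypes were retained after Illumina sequencing of inputs and outputs only with ≥10 input reads and ≥1 read in each output. Fitness is defined as the logarithm of a genotype's enrichment relative to wild-type enrichment, using inverse-variance-weighted averages across replicates, with the logarithm taken to base 2.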

| Variant | polymerase ribozyme fitness (log ratio) |
| --- | --- |
| A28C U78G | ≤ -4.2 |
| A28C G34A C38G C72U C76A C96G U151A | ≤ -4.2 |
| C27G U53A G67C G83C G88U U90G A119C G143C | ≤ -4.2 |
| A28U A37U A73G G92U A106G C118G | ≤ -4.2 |
| C27U U56G C79A C85G | ≤ -4.2 |
| C27G G67C C85A | ≤ -4.2 |
| C27G G34U G42C G71C C79U C85G C105U G117U | ≤ -4.2 |
| A28U A30G C85G | ≤ -4.2 |
| A28C C54G G59A C96G U111A G143U | ≤ -4.2 |
| C27U U55A G83A C95A C96A A113G G143C | ≤ -4.2 |
| A28C C32U U56C C79A C87G G136A | ≤ -4.2 |
| A28U A30C U56A G59A A66G C85U C103A C118G G141U U145C | ≤ -4.2 |
| C27U A37C C51U C57U C95U C125A | -4.06 |
| A28G U55A G133C U135A | ≤ -4.2 |
| A28U A29U U44A C57G A91G C93A G112A C118U G141C | ≤ -4.2 |
| C27G G59C G88C U104G U134A A138U | ≤ -4.2 |
| C27U G86A U145A G152A | ≤ -4.2 |
| C27U A37C G100C | ≤ -4.2 |
| C27G G70A G74C | ≤ -4.2 |
| C27G C57A A91U C95U | ≤ -4.2 |
| C27G C76A | -3.63 |

| Variant | polymerase ribozyme fitness (log ratio) |
| --- | --- |
| A28U A29U U61A G81A C93A | ≤ -4.2 |
| C27U U45A G71A C75A A89U C118A | ≤ -4.2 |
| A28U A37G A52G U55A G58C C95A U145C C149G | ≤ -4.2 |
| C27G C87U | -3.97 |
| C27G C87A | ≤ -4.2 |
| A28G A49C C76U G94U A150G | ≤ -4.2 |
| A28C G58U A113G A119U | ≤ -4.2 |
| C27U U53A C85G | -3.88 |
| A28C G67A G100C A119G C131U U145G | ≤ -4.2 |
| A28C A47U G81U G86U U127A | ≤ -4.2 |
| C27U A39U G59A C79G C95G | ≤ -4.2 |
| A28C C96U G100A C105G A119U | ≤ -4.2 |
| A28G G34U A41G C93G | ≤ -4.2 |
| C27U G58C C123U | -1.57 |
| C27U C43G | ≤ -4.2 |
| C27U A49C G88A U111G | ≤ -4.2 |
| A28G U82G G140C | ≤ -4.2 |
| A28C U33G U77C U90G C93A U148C G152A | ≤ -4.2 |
| A28C A47C U101G | ≤ -4.2 |
| C27U G58A G59C C99U U102G A120C C125U A150G | ≤ -4.2 |
| A28G C79G C85U A115C U151A | ≤ -4.2 |

| Variant | polymerase ribozyme fitness (log ratio) |
| --- | --- |
| A28G U33G G34U G59C U104G C118U | ≤ -4.2 |
| A28C G46C C76G U82A A89C G124A | ≤ -4.2 |
| A28G C36G A52U C87A A89U | ≤ -4.2 |
| A28U A41C G88C | ≤ -4.2 |
| A28G U53A U130G | ≤ -4.2 |
| A28G G88U G92A A98G G133U U144A | ≤ -4.2 |
| A28U A30C C43G U78A G92A U146A C149U | ≤ -4.2 |
| C27G C54U G86U A91C C125A U135G A137G | ≤ -4.2 |
| A28G | -2.24 |
| A28C | -3.75 |
| A28U | -3.38 |
| A28U A40G U55A G92C U102G A115U | ≤ -4.2 |
| A28C U44G U53A C85G | ≤ -4.2 |
| A28U A37G G50C A91C G92U G152A | ≤ -4.2 |
| C27U C32A A39U C75U A91C A121C G126C | ≤ -4.2 |
| C27U U55A C99G A138G | ≤ -4.2 |
| A28C C93A C105A A115G A122G C129U | ≤ -4.2 |
| A28C G34C A91G A106U U134A A150C | ≤ -4.2 |
| A28C G46C A64C G65A U151G | ≤ -4.2 |
| A28G A106C G133U A142C | ≤ -4.2 |
| A28U A39U | ≤ -4.2 |

| Variant | polymerase ribozyme fitness (log ratio) |
| --- | --- |
| C27U U33G C95U | -3.46 |
| C27G C38U U55C A66G C76G U78C U90G | ≤ -4.2 |
| C27U A30G A52C | ≤ -4.2 |
| A28G C43G G86U G133A A137U | ≤ -4.2 |
| C27G C87G G133C | ≤ -4.2 |
| A28C C93A | ≤ -4.2 |
| C27G U55A U56A G58U | ≤ -4.2 |
| A28C A30U G86A | ≤ -4.2 |
| C27U G50C C87A C105G | ≤ -4.2 |
| A28C C87A C125U | ≤ -4.2 |
| C27U C54U C72U C85U U101G G117A G143A U145G | ≤ -4.2 |
| A28U A37C G42U C76U U78G | ≤ -4.2 |
| A28G G50C C51U G80C C96G G140U G143A | ≤ -4.2 |
| C27U G48A C69A C96A A121G | ≤ -4.2 |
| C27G G59U A60C A91U C105U U145C | ≤ -4.2 |
| A28C A137U | ≤ -4.2 |
| A28G C51G G94U | ≤ -4.2 |
| A28G C75G G88A U139G G141C | -3.97 |
| C27U U33C A49C G94A A110U A119U | ≤ -4.2 |
| A28C U82G | ≤ -4.2 |
| C27U C32G C35G A138C U139A G141A U146G | ≤ -4.2 |
